# From publication PMC9911399, “Two distinct binding modes provide the RNA-binding protein RbFox with extraordinary sequence specificity”
# Numbering of substitutions follows the chain as printed; changes in the protein carry UniProt numbers. The list shows a part of the results.
# B1: GUAGUAC (DNA:RNA)
# RNA: GGGAGACCGGAAUUCAGAUUGUCCGUAGUACUUAAAUCCCGUCGUAGCCACCA
# DNA 1: CAATCTGAATTCCGGTCTCCC
# DNA 2: TGGTGGCTACGACGGGATT
# B2: CAUCUCG (DNA:RNA)
# RNA: B1 RNA with G25C, U26A, A27U, G28C, A30C, C31G
# DNA 1: CAATCTGAATTCCGGTCTCCC
# DNA 2: TGGTGGCTACGACGGGATT
# B3: AGCAUCC (DNA:RNA)
# RNA: B1 RNA with G25A, U26G, A27C, G28A, A30C
# DNA 1: CAATCTGAATTCCGGTCTCCC
# DNA 2: TGGTGGCTACGACGGGATT
# B4: AAUCCCA (DNA:RNA)
# RNA: GGGAGACCGGAAUUCAGAUUGUCCAAUCCCAUUAAAUCCCGUCGUAGCCACCA
# DNA 1: CAATCTGAATTCCGGTCTCCC
# DNA 2: TGGTGGCTACGACGGGATT
# B5: UUGGGCC (DNA:RNA)
# RNA: B1 RNA with G25U, A27G, U29G, A30C
# DNA 1: CAATCTGAATTCCGGTCTCCC
# DNA 2: TGGTGGCTACGACGGGATT
# B6: AGCCAAC (DNA:RNA)
# RNA: B4 RNA with A26G, U27C, C29A, C30A, A31C
# DNA 1: CAATCTGAATTCCGGTCTCCC
# DNA 2: TGGTGGCTACGACGGGATT
# B7: UAAGUAU (DNA:RNA)
# RNA: B1 RNA with G25U, U26A, C31U
# DNA 1: CAATCTGAATTCCGGTCTCCC
# DNA 2: TGGTGGCTACGACGGGATT
# B8: CGUAAGU (DNA:RNA)
# RNA: B4 RNA with A25C, A26G, C28A, C29A, C30G, A31U
# DNA 1: CAATCTGAATTCCGGTCTCCC
# DNA 2: TGGTGGCTACGACGGGATT
# B9: AAGGCAU (DNA:RNA)
# RNA: B4 RNA with U27G, C28G, C30A, A31U
# DNA 1: CAATCTGAATTCCGGTCTCCC
# DNA 2: TGGTGGCTACGACGGGATT
# B10: UAGACAU (DNA:RNA)
# RNA: B4 RNA with A25U, U27G, C28A, C30A, A31U
# DNA 1: CAATCTGAATTCCGGTCTCCC
# DNA 2: TGGTGGCTACGACGGGATT
# B11: CACUGAU (DNA:RNA)
# RNA: B4 RNA with A25C, U27C, C28U, C29G, C30A, A31U
# DNA 1: CAATCTGAATTCCGGTCTCCC
# DNA 2: TGGTGGCTACGACGGGATT
# B12: UGAAACA (DNA:RNA)
# RNA: B4 RNA with A25U, A26G, U27A, C28A, C29A
# DNA 1: CAATCTGAATTCCGGTCTCCC
# DNA 2: TGGTGGCTACGACGGGATT
# B13: UCCGGAA (DNA:RNA)
# RNA: B1 RNA with G25U, U26C, A27C, U29G, C31A
# DNA 1: CAATCTGAATTCCGGTCTCCC
# DNA 2: TGGTGGCTACGACGGGATT
# B14: AACGGAU (DNA:RNA)
# RNA: B4 RNA with U27C, C28G, C29G, C30A, A31U
# DNA 1: CAATCTGAATTCCGGTCTCCC
# DNA 2: TGGTGGCTACGACGGGATT
# B15: UCCUUAU (DNA:RNA)
# RNA: B1 RNA with G25U, U26C, A27C, G28U, C31U
# DNA 1: CAATCTGAATTCCGGTCTCCC
# DNA 2: TGGTGGCTACGACGGGATT
# B16: CCGGGAA (DNA:RNA)
# RNA: B1 RNA with G25C, U26C, A27G, U29G, C31A
# DNA 1: CAATCTGAATTCCGGTCTCCC
# DNA 2: TGGTGGCTACGACGGGATT
# B17: UGCGAUA (DNA:RNA)
# RNA: B4 RNA with A25U, A26G, U27C, C28G, C29A, C30U
# DNA 1: CAATCTGAATTCCGGTCTCCC
# DNA 2: TGGTGGCTACGACGGGATT
# B18: AAACUCU (DNA:RNA)
# RNA: B4 RNA with U27A, C29U, A31U
# DNA 1: CAATCTGAATTCCGGTCTCCC
# DNA 2: TGGTGGCTACGACGGGATT
# B19: AUUUAUG (DNA:RNA)
# RNA: B4 RNA with A26U, C28U, C29A, C30U, A31G
# DNA 1: CAATCTGAATTCCGGTCTCCC
# DNA 2: TGGTGGCTACGACGGGATT
# B20: GUAGUGA (DNA:RNA)
# RNA: B1 RNA with A30G, C31A
# DNA 1: CAATCTGAATTCCGGTCTCCC
# DNA 2: TGGTGGCTACGACGGGATT
# Target: T1, RBFOX1 RRM (Homo sapiens, UniProt Q9NWB1 109-208)
# T1 sequence: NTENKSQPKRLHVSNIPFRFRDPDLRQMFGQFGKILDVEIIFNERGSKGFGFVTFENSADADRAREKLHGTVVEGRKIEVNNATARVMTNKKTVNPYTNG
# Assay: EMSA; HiTS-Eq, 1 nM pool, 10 min; buffer printed only for the single-RNA assays: 10 mM Tris pH 7.5, 150 mM NaCl, 3.4 mM EDTA, 0.001% NP-40, 30 C
# Details: tags: His6 N-terminal (pET28a); label: 5' 32P
# Outline: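 Relative association constants, normalised to the cognate motif, were derived by comparing read counts of each RNA species with those of the control reaction. The RNA sequenced was the free fraction, separated by 8% native PAGE after a 10 min equilibration in 50 µL of 1 nM 5′-radiolabelled RNA (7 randomized nucleotides) with increasing concentrations of purified wild-type or mutant RbFox RRM.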
row,Binder,binding signal
1,B1,0.0112 KA relative to UGCAUGU
2,B2,0.00555 KA relative to UGCAUGU
3,B3,0.0214 KA relative to UGCAUGU
4,B4,0.000887 KA relative to UGCAUGU
5,B5,0.0194 KA relative to UGCAUGU
6,B6,0.00125 KA relative to UGCAUGU
7,B7,0.0115 KA relative to UGCAUGU
8,B8,0.00915 KA relative to UGCAUGU
9,B9,0.0103 KA relative to UGCAUGU
10,B10,0.00404 KA relative to UGCAUGU
11,B11,0.00636 KA relative to UGCAUGU
12,B12,0.00828 KA relative to UGCAUGU
13,B13,0.00835 KA relative to UGCAUGU
14,B14,0.00561 KA relative to UGCAUGU
15,B15,0.00181 KA relative to UGCAUGU
16,B16,0.0136 KA relative to UGCAUGU
17,B17,0.017 KA relative to UGCAUGU
18,B18,0.0013 KA relative to UGCAUGU
19,B19,0.0107 KA relative to UGCAUGU
20,B20,0.0104 KA relative to UGCAUGU
